Source: PubChem BioAssay AID1345082 (National Center for Advancing Translational Sciences (NCATS), 2018)
The whole screen tested about 94,000 compounds, of which about 4,000 (4.3%) were called active. The shares of active, inactive and inconclusive entries below differ from those in the screen. Calls come from the whole dose curve; as a rule, active = well fitted inhibition curve with a large enough effect; inconclusive = small, poorly fitted or top-dose-only effect; inactive = no such curve, though single readings can be large or run the other way. A potency beside an inconclusive call is a rough fit, not a confirmed value.

Assay: Cytotoxic Profiling in NIH 3T3 Cell Line of Diverse Libraries Using Quantitative High-Throughput Screening; note: nearly all actives have a fitted effect of over 55% in size
Details: NIH 3T3 viability, CellTiter-Glo ATP luminescence, 48-72 h; series mostly up to 96.7 µM
How it was run: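 Cells were seeded at 400 per well, treated with pin-transferred compound, and kept 48 or 72 hr at 37 °C before CellTiter-Glo addition and luminescence imaging of cellular ATP.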
Potency is the fitted concentration of half-maximal effect; tags give direction and shape of the fitted curve.

Row | SMILES | Potency
1 | CC(C)c1ccc(N2C(=O)N[C@@H]3CCN(C(=O)c4ccc(N(C)C)cc4)[C@@H]3C2=O)cc1 | inactive
2 | O=C(NCCc1ccccc1)c1cnc2c(c1)N(C(=O)Cc1cccc(C(F)(F)F)c1)CCC2 | inconclusive: 50.1 µM [inhibitor, single point]
3 | Cn1cc(CN2CCNc3cc(Nc4cccnc4)ncc3C2)cn1 | inconclusive: 35.5 µM [inhibitor, full curve]
4 | O=C(Nc1ccc2c(c1)OCCO2)N1CCC(CCc2nc(C3CCOCC3)no2)CC1 | inconclusive: 44.7 µM [inhibitor, partial curve, poor fit]
5 | COc1ccc(Nc2ccnc(N3CCC(NC(=O)c4ccc(C(F)(F)F)cc4)CC3)n2)cc1 | inconclusive: 14.1 µM [inhibitor, full curve, poor fit]
6 | CCN(CC)c1ccc(C(=O)NCc2nnc3ccc(-c4ccc(C)cc4)nn23)cc1 | inconclusive: 20 µM [inhibitor, full curve, poor fit]
7 | COc1cccc(CN2C[C@@H](COCC3CC3)[C@H](c3ccncc3)C2)n1 | inactive
8 | O=C(C1CCCN1C(=O)C1CC1)N1CCC(c2nc3ccncc3[nH]2)C1 (centres undefined) | inactive
9 | Cc1nc(-c2ccc(F)cc2)n(Cc2ccc(F)c(F)c2)c(=O)c1CCO | inconclusive: 50.1 µM [inhibitor, partial curve, poor fit]
10 | CC1(c2cccnc2)N(CCOc2ccccc2)C(=O)OC12CCN(C(=O)Cc1cccc(F)c1)CC2 (centres undefined) | inconclusive: 6.31 µM [inhibitor, full curve, poor fit]
11 | COc1cc(CNC2CCCCC2)ccc1OCC(O)CN1CCSCC1 (centres undefined) | inactive
12 | C=CCOc1c(OC)ccc2c1CN(C1CCCC1)C(=O)CCN2CC(O)COc1ccccc1 (centres undefined) | active: 39.8 µM
13 | Cc1cccc(OCC(=O)N2CCC(n3cc(-c4nc(C(C)C)no4)nn3)C2)c1 (centres undefined) | inactive
14 | CCCn1nc(C)cc1CN(C)C(=O)c1ccc2c(c1)C(O)CCCCCN2CCOC (centres undefined) | inconclusive: 11.2 µM [inhibitor, full curve, poor fit]
15 | COCCCn1c(=O)c(C(=O)N2CCN(C(=O)c3ccc(Cl)nc3)CC2)nc2cccnc21 | inactive
16 | Cc1nc2cccnc2n1CC1CCCN(S(=O)(=O)c2ccc(F)c(F)c2)C1 (centres undefined) | inconclusive: 50.1 µM [inhibitor, partial curve, poor fit]
17 | CCC1Oc2ccc(NC(=O)c3ccc(Cl)cc3)cc2CN(Cc2ccc3c(c2)OCO3)C1=O (centres undefined) | inconclusive: 50.1 µM [inhibitor, partial curve, poor fit]
18 | COCCNc1ncnc2c1CCN(C(=O)CCc1n[nH]c(C)n1)CC2 | inactive
19 | Cc1ccc(CN2CCC(N3C(=O)c4c(c(C)nn4-c4ccccc4)C3C3CC3)CC2)cc1 (centres undefined) | inactive
20 | O=C(Nc1ccccc1)c1nc2c(o1)CCN(Cc1cccc(Cl)c1)CC2 | inconclusive: 79.4 µM [inhibitor, partial curve]
21 | Cc1ncc2n1C(=O)N(C1CCN(Cc3ccsc3)CC1)C2 | inconclusive: 70.8 µM [inhibitor, partial curve, poor fit]
22 | CC(C)C(=O)N1Cc2ccccc2CC2(CCCN(C)C2)C1 (centres undefined) | inconclusive: 79.4 µM [inhibitor, single point]

Row | SMILES | Potency
23 | Cc1ccc(-c2ncc(C(=O)NCC3CCCCC3)c(-c3ccncc3)n2)cc1 | inconclusive: 70.8 µM [inhibitor, single point]
24 | COCc1ccc2c(c1)c(OC(C)(C)C(=O)Nc1ccn(C)n1)nn2Cc1cccnc1 | inconclusive: 35.5 µM [inhibitor, partial curve, poor fit]
25 | CC(CCc1ccco1)NC(=O)CN1CCCc2nc(-c3ccccc3)ncc2C1=O (centres undefined) | inconclusive: 50.1 µM [inhibitor, partial curve, poor fit]
26 | COCCN1CCCC2(CCN(c3nc(C)nc4sccc34)C2)C1=O (centres undefined) | inconclusive: 44.7 µM [inhibitor, partial curve, poor fit]
27 | O=C1CCN(C(=O)C2CCN(C(=O)CCc3ccccc3)CC2)CCCCCCN1 | inactive
28 | CN(C)Cc1nnc(C2CC(NC(=O)c3ccc4scnc4c3)C2)n1C (centres undefined) | inactive
29 | O=C(NC1CN(c2ccnc3ccnn23)C1)c1cc(F)ccc1Br | inactive
30 | CC(=O)c1ccc(NC(=O)c2cc3c(n2C)CCN(Cc2ccccc2)C3)cc1 | inconclusive: 44.7 µM [inhibitor, partial curve, poor fit]
31 | Cc1ccc(CN2CCC(N3CCCNC3=O)CC2)cc1 | inactive
32 | CCc1ccc(N2CC(c3noc(-c4ccc(OC)cc4OC)n3)CC2=O)cc1 (centres undefined) | inconclusive: 28.2 µM [inhibitor, partial curve, poor fit]
33 | Cc1cc(C)c(S(=O)(=O)N2CCCC(Cn3cc(CO)nn3)C2)c(C)c1 (centres undefined) | inactive
34 | COC(=O)[C@@H]1Cc2c([nH]c3ccccc23)[C@@H]2C[C@@H](NCCNC(C)=O)C[C@@H](c3cccc(Cl)c3)N12 | active: 28.2 µM
35 | COCCCNC(=O)N1CCCN(Cc2ccncc2)C(c2ccccc2)CC(=O)NCC1 (centres undefined) | inactive
36 | CN1CCN(c2ccc(-c3nccc4c(=O)cc(N5CCOCC5)oc34)cn2)CC1 | inconclusive: 56.2 µM [inhibitor, partial curve, poor fit]
37 | Cc1cnc(C(=O)N[C@@H]2CCC[C@@H]2C(=O)Nc2ccc(C)c(F)c2)cn1 | inactive
38 | Cc1ccsc1CN(Cc1ccc(CN(C)S(C)(=O)=O)o1)CC(C)C | inconclusive: 79.4 µM [inhibitor, partial curve, poor fit]
39 | Cn1ccc2c(C(=O)NCCC(N)=O)nc(-c3ccccc3C(F)(F)F)cc21 | inconclusive: 79.4 µM [inhibitor, partial curve]
40 | COCCOCC(=O)N1CC(Oc2ccccc2-c2nc(C3CC3)no2)C1 | inactive
41 | O=C1c2c(nc(CNCc3cnccn3)n2Cc2ccccc2)NCCN1Cc1cccc(Cl)c1 | inconclusive: 35.5 µM [inhibitor, partial curve]
42 | CCCNC(=O)C1CCc2sc(C(=O)N(C)C)cc2C1 (centres undefined) | inactive
43 | CC(=O)N1CCCC1c1nc(C2CN(Cc3ccc(F)c(Cl)c3)C2)no1 (centres undefined) | inconclusive: 44.7 µM [inhibitor, partial curve, poor fit]
44 | O=C(NCc1nnc2cc(-c3nc(C4CC4)no3)ccn12)c1ccc2[nH]ccc2c1 | inconclusive: 7.94 µM [inhibitor, full curve]

Row | SMILES | Potency
45 | Cc1ccc(C(=O)N2CCC(Cc3ccc(CN4CCCCC4)cc3)CC2)cn1 | inconclusive: 44.7 µM [inhibitor, partial curve, poor fit]
46 | COc1ccccc1CN1CCC(CN(CC(C)C)C(=O)C2CCCN2)CC1 (centres undefined) | inconclusive: 79.4 µM [inhibitor, partial curve, poor fit]
47 | COC(=O)c1ccc2nc(C[C@@H]3C[C@@H](C(C)C)[C@H](CNC(=O)COCC(=O)O)C=C3C)[nH]c2c1 | inactive
48 | COc1ccccc1-c1cnc(Nc2cc(F)cc(N3CCOCC3)c2)c2c1CCO2 | inconclusive: 28.2 µM [inhibitor, full curve]
49 | CN(C)c1ccc(CN2CCCC3(CC(c4cccc(C(F)(F)F)c4)=NO3)C2)cc1 (centres undefined) | inconclusive: 50.1 µM [inhibitor, partial curve, poor fit]
50 | COc1ccc(-c2cc(N3CCCN(C(=O)C(C)c4ccccc4)CC3)n[nH]2)cc1 (centres undefined) | inconclusive: 50.1 µM [inhibitor, single point]
51 | COc1ccc(CNC(=O)N2CCC(Cc3ncc(C)n3C3CC3)C2)cc1 (centres undefined) | inactive
52 | CCOC(=O)CN1C(=O)CCN(C(=O)c2ccc(F)cc2)CC(OC)c2ccccc21 (centres undefined) | inactive
53 | CN(C)CCNC(=O)c1ccc2c(c1)C1(CCCN(CC3CC3)C1)CN2C (centres undefined) | active: 89.1 µM
54 | CC(C)c1nc2c(c(-c3ccc(O)cc3)n1)CCN(C(=O)C1CCCC1)CC2 | inconclusive: 50.1 µM [inhibitor, partial curve, poor fit]
55 | COCc1nc(C2CCCN(C(=O)c3ccc(OC)nc3OC)C2)no1 (centres undefined) | inactive
56 | COc1cc(F)ccc1-c1cc(C(=O)NCc2c(C)cc(C)[nH]c2=O)c2c(c1)N(C(C)C)CCO2 | active: 39.8 µM
57 | Cc1ccc(C2Cn3nnc(-c4noc(-c5cc(F)ccc5Cl)n4)c3CO2)cc1 (centres undefined) | inactive
58 | COc1cccc(-c2cccc(CN3CCCC3C(=O)NC3CC3)c2)c1 (centres undefined) | inconclusive: 50.1 µM [inhibitor, partial curve, poor fit]
59 | COc1ccccc1OC1(C(=O)O)CCN(Cc2nccn2C)CC1 | inconclusive: 50.1 µM [inhibitor, partial curve, poor fit]
60 | Cc1ncc(CN2CCCC2C(=O)Nc2ccc(-c3cccc(F)c3)cc2)[nH]1 (centres undefined) | inconclusive: 79.4 µM [inhibitor, partial curve, poor fit]
61 | Cc1ccc([S+](=O)([O-])NC2CCCN(Cc3cccc(-c4ccc(C)c(Cl)c4)c3)C2)cc1 (centres undefined) | inconclusive: 31.6 µM [inhibitor, full curve, poor fit]
62 | Cc1cn2nc(C(=O)Nc3ccc(F)c(F)c3)cc2c(N(C)Cc2ccccc2)n1 | inconclusive: 12.6 µM [inhibitor, full curve, poor fit]
63 | O=C1NC(=NC2CCCCC2)C2(CCN(CC3CCCCC3)C2)N1c1cccnc1 (centres undefined) | inconclusive: 50.1 µM [inhibitor, partial curve, poor fit]
64 | COCCOc1ccc(C(=O)N[C@@H]2CN(C(=O)Nc3ccc(OC(F)(F)F)cc3)CCC[C@H]2O)cc1 | inconclusive: 28.2 µM [inhibitor, full curve, poor fit]
